# Experimental data from PubChem BioAssay AID1347165 (National Center for Advancing Translational Sciences (NCATS), 2019).
# Among all 220,000 compounds or so, about 5,700 (2.6%) were called active. The inconclusive results got no clear call from the source; some entries with a clear call stand among them for comparison. Calls come from the whole dose curve; as a rule, active = well fitted inhibition curve with a large enough effect; inconclusive = small, poorly fitted or top-dose-only effect; inactive = no such curve, though single readings can be large or run the other way. Where the call is inconclusive, the potency comes from a doubtful curve fit.
# Molecular target: Lysine-specific demethylase 5B (Homo sapiens) (UniProt Q9UGL1)
# Test: Primary screen for KDM5B Histone Demethylases FDH-coupled qHTS; note: nearly all actives have a fitted effect of over 70% in size
# Details: FDH-coupled NADH fluorescence (FDH is formaldehyde dehydrogenase); series mostly up to 57.7 µM
# How it was run: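 Inhibition is measured as reduced NADH fluorescence generation from FDH coupling to formaldehyde release. Truncated KDM5BΔAP at 200 nM final acts on H3K4me3 peptide (12.5 µM in substrate mix) in pH 7.5 HEPES buffer with Tween-20, 30 min, room temperature.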
# Potency is the fitted concentration of half-maximal effect; tags give direction and shape of the fitted curve.
# UniProt Q9UGL1, sequence (Q9UGL1 whole entry, looked up): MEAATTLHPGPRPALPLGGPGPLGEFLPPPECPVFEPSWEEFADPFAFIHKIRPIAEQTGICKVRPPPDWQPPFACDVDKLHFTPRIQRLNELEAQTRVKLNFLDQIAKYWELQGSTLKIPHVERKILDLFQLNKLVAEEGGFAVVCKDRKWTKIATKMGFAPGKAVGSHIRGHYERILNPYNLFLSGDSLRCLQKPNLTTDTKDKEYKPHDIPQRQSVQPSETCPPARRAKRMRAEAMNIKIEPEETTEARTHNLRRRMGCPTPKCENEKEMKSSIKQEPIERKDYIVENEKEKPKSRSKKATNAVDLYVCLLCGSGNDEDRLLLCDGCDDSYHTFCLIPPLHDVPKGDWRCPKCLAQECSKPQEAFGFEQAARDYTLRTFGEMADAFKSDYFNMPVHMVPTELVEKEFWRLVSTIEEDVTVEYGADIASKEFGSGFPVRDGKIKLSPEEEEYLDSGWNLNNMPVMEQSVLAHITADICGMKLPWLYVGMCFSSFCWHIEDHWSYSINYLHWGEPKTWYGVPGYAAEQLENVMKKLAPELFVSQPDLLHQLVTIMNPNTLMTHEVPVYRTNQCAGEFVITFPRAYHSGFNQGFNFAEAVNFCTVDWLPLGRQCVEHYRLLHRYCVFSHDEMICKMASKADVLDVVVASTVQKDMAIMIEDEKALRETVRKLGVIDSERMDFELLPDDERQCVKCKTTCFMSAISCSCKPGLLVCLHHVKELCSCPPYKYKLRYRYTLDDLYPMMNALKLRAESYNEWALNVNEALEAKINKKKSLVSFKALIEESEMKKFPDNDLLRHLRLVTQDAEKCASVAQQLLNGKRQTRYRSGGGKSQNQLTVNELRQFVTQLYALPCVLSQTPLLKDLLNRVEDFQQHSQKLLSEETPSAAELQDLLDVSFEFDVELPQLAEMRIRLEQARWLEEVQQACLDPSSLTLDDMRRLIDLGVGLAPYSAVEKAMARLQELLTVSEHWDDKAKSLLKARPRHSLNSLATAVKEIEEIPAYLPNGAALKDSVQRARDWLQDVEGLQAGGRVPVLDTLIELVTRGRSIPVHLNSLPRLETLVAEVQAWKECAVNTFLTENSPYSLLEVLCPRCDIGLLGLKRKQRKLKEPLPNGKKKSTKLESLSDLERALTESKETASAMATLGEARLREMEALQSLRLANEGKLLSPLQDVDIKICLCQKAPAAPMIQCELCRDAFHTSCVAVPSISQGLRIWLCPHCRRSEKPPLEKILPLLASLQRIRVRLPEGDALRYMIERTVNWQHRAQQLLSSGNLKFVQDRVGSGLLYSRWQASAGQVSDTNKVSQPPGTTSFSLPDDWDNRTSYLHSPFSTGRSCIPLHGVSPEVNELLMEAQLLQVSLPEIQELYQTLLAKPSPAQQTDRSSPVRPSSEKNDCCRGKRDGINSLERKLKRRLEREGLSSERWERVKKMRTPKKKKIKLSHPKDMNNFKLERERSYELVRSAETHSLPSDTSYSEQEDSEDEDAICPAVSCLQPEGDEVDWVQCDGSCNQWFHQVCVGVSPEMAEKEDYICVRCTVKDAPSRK
row,SMILES,Potency
1,COc1nccnc1NC1CCN(S(=O)(=O)c2cnc[nH]2)CC1,"inconclusive: 28.2 µM [inhibitor, partial curve, poor fit]"
2,CCc1ccc(CNC(=O)Nc2ccc(N3CCOCC3)nc2)s1,"inconclusive: 14.1 µM [inhibitor, partial curve, poor fit]"
3,CCCSc1nc(SC)c2c3c(sc2n1)COC(C)(C)C3,inactive
4,COC(=O)c1[nH]c2ccccc2c1NC(=O)c1c(F)cccc1F,"inconclusive: 28.2 µM [inhibitor, partial curve, poor fit]"
5,COc1cc(NC(=O)Nc2cc(-c3nc4cc(C)ccc4o3)ccc2OC)cc(OC)c1,"inconclusive: 39.8 µM [inhibitor, single point]"
6,Cc1ccc(C2=C(O)C(=O)N(Cc3ccco3)C2c2ccc(C(C)C)cc2)cc1 (centres undefined),inactive
7,COc1ccccc1C(=O)Oc1ccc(F)cc1C(=O)/C=C/c1ccccc1Cl,inactive
8,COCCN1C(=O)c2cccn2CC1CNC(=O)c1ccccc1F (centres undefined),inactive
9,COc1ccc(OCC2(C)COc3ccc(C(=O)Nc4ccc(OC)nc4)cc3N2)cc1 (centres undefined),active: 39.8 µM
10,N#Cc1ccc(CNC(=O)[C@@H]2Cc3nc[nH]c3CN2CC2CCCCC2)cc1,"inconclusive: 28.2 µM [inhibitor, single point]"
11,CCc1ccc(NC(=O)N2CCN(c3nnc(C)c4c(C)n(-c5ccc(Cl)cc5)nc34)CC2)cc1,"inconclusive: 1.41 µM [inhibitor, full curve, poor fit]"
12,COc1cccc(NC(=O)c2csc3c2CCCCC3)c1,"inconclusive: 14.1 µM [inhibitor, partial curve, poor fit]"
13,CCOC(=O)/C=C/SC(S/C=C/C(=O)OCC)=C(C#N)C(N)=O,"inconclusive: 2.51 µM [inhibitor, full curve, poor fit]"
14,O=C(CCc1ncc(-c2ccccc2Cl)o1)Nc1ccc(F)cc1,inactive
15,CC(C)CC(=O)Nc1ccc(N2CCCC2)cc1,"inconclusive: 28.2 µM [inhibitor, single point]"
16,O=C(NCc1cccnc1)c1nc(-c2ccc(Cl)nc2)c2ccccn12,active: 89.1 µM
17,COc1ccc(-c2ccnc(N[C@H]3CO[C@H]4[C@@H]3OC[C@H]4OC(=O)Nc3cccc4ccccc34)n2)cc1,"inconclusive: 28.2 µM [inhibitor, single point]"
18,Cc1ccc(C2C3=C(CC(C)(C)CC3=O)Nc3c2c(=O)[nH]c(=O)n3Cc2ccccc2)cc1 (centres undefined),"inconclusive: 28.2 µM [inhibitor, single point]"
19,Cc1nc(-c2ccccc2)sc1-c1ccc(SCC(=O)Nc2ccccc2)nn1,"inconclusive: 8.91 µM [inhibitor, partial curve, poor fit]"
20,CN1CC(=O)N(C2CCCNC2)Cc2c(NCCc3ccccc3F)ncnc21 (centres undefined),"inconclusive: 50.1 µM [inhibitor, partial curve, poor fit]"
21,O=C(NCCN1CCCC1)c1cnc2c(c1)N(C(=O)Cc1cccc(C(F)(F)F)c1)CCC2,"inconclusive: 17.8 µM [inhibitor, partial curve, poor fit]"
22,O=C(Nc1ccc(S(=O)(=O)Nc2ccccn2)cc1)c1ccc(Cl)cc1Cl,"inconclusive: 39.8 µM [inhibitor, partial curve, poor fit]"

row,SMILES,Potency
1,O=C(CSCn1nnc2c(=O)[nH]c(Cc3ccc(F)cc3)nc21)Nc1ccc(F)c(Cl)c1,inactive
2,O=C(CS(=O)(=O)c1nc(-c2ccc(Cl)cc2)cn1-c1ccccc1)Nc1cccc(Cl)c1,"inconclusive: 1.58 µM [inhibitor, full curve, poor fit]"
3,O=C(Cn1c2ncccc2c(=O)n1-c1ccccc1)NCc1ccccc1,"inconclusive: 25.1 µM [inhibitor, partial curve, poor fit]"
4,O=C(c1ccc2c(c1)OCO2)N1CCC2(CC1)N=C(c1ccccc1)NO2,"inconclusive: 14.1 µM [inhibitor, partial curve]"
5,CCOc1ccc(NC(=O)Cn2ccn3nc4c(c3c2=O)CCCCC4)cc1,"inconclusive: 15.8 µM [inhibitor, partial curve, poor fit]"
6,Brc1ccc(CN2CCc3nc(Nc4ccccc4)ncc3C2)s1,"inconclusive: 17.8 µM [inhibitor, partial curve, poor fit]"
7,C[C@@H](NC(=O)C1CC1)c1c(-c2ccc(F)cc2)noc1C(=O)O,"inconclusive: 35.5 µM [inhibitor, single point]"
8,COc1ccc(CCNc2ncnc3c2cnn3-c2ccc(F)cc2)cc1,"inconclusive: 39.8 µM [inhibitor, single point]"
9,O=C([C@@H]1CCCN1C1CCNCC1)N1CCN(Cc2cccnc2)CC1,"inconclusive: 4.47 µM [inhibitor, full curve]"
10,COc1ccc(CCNC(=O)c2cc(-c3ccccc3O)n[nH]2)cc1OC,inactive
11,O=C(NCc1cccnc1)c1nc(-c2ccc(Cl)nc2)c2cnccn12,active: 63.1 µM
12,C[S+](=O)([O-])NCCn1ccc2cc(OC3CCN(c4ncccn4)CC3)cnc21,"inconclusive: 39.8 µM [inhibitor, partial curve, poor fit]"
13,COc1ccc(-c2cc(C(=O)NCC3CC3)c3c(C)nn(-c4ccccc4)c3n2)cc1,"inconclusive: 3.16 µM [inhibitor, full curve, poor fit]"
14,CC(=O)c1ccc(NC(=O)N2C[C@@H]3C[C@H](C2)c2ccc(NS(=O)(=O)Cc4ccccc4)c(=O)n2C3)cc1,"inconclusive: 28.2 µM [inhibitor, partial curve, poor fit]"
15,O=C(NCCc1ccc(F)cc1)c1cc(-c2cccnc2)nc2ccccc12,inactive
16,Cc1nc(N2CCCC2)ncc1C(=O)Nc1ccc(OC(F)(F)F)cc1,inactive
17,COc1ccc(OCc2ccc(-c3nc(C#N)c(NCc4ccc(F)cc4)o3)o2)cc1,"inconclusive: 25.1 µM [inhibitor, partial curve, poor fit]"
18,COCCNC(=O)[C@@H]1C[C@@H](O)CN1C1CCN(C(=O)CCc2ccccc2)CC1,inactive
19,Cc1nc(N2CCCC3(CN(C)C(=O)O3)C2)cc(-n2cccn2)n1 (centres undefined),"inconclusive: 15.8 µM [inhibitor, partial curve, poor fit]"
20,COc1cccc(CNC(=O)Nc2cn(CC(C)C)c(=O)c3ccccc23)c1,"inconclusive: 20 µM [inhibitor, partial curve, poor fit]"
21,CCc1nccc(CN2CCC(c3nn(C)c(=O)n3CC)CC2)n1,active: 15.8 µM
22,COc1ccccc1C(=O)N1CCC(n2cnnc2C2CC2)CC1,inactive

row,SMILES,Potency
1,Cc1cc(C)cc(NC(=O)Cn2c(N3CCN(c4ccccc4)CC3)nc(C)cc2=O)c1,inactive
2,COCC1CN(Cc2ccc(OC)cc2)CC12CCNCC2 (centres undefined),"inconclusive: 17.8 µM [inhibitor, partial curve, poor fit]"
3,CCc1noc(-c2ccn3c(CNC(=O)CCc4ccc(OC)cc4)nnc3c2)n1,"inconclusive: 17.8 µM [inhibitor, partial curve, poor fit]"
4,COc1ccc(-c2cn3cccnc3n2)cc1NC(=O)c1ccccc1C(F)(F)F,"inconclusive: 5.01 µM [inhibitor, partial curve, poor fit]"
5,COc1ccc(N2Cc3c(NCC4CCCCC4)ncnc3N(C)CC2=O)cc1,"inconclusive: 28.2 µM [inhibitor, partial curve, poor fit]"
6,O=C(c1ccc(Cl)cc1)N1CC2(CCN(CC3CCCCC3)CC2)Cc2ccccc21,inactive
7,O=C(NCc1ccc(-c2nc3ccccc3s2)o1)c1ccccc1Br,"inconclusive: 22.4 µM [inhibitor, partial curve, poor fit]"
8,C=CCN1C(=O)c2ccccc2Sc2ccc(C(=O)NC(C)C)cc21,"inconclusive: 39.8 µM [inhibitor, single point]"
9,COc1cc(OC)c(OC)cc1/C=C(/C#N)c1nc2ccccc2[nH]1,"inconclusive: 28.2 µM [inhibitor, single point]"
10,Cc1cc2oc(=O)cc(CN3CCC4(CC3)OCCO4)c2cc1C,inactive
11,CCCc1cc(=O)oc2c(C)c(OCC(=O)OC(C)(C)C)ccc12,"inconclusive: 17.8 µM [inhibitor, single point]"
12,COC(=O)CNC(=O)C1CCN(c2ncnc3sc4c(c23)CCCC4)CC1,inactive
13,CCCCCNC(=O)Cc1csc2nc(C)c(-c3cc(C)n(-c4cccc(C)c4C)n3)c(=O)n12,active: 31.6 µM
14,COc1ccc(NC(=O)O[C@@H]2CO[C@H]3[C@@H]2OC[C@@H]3NS(=O)(=O)c2ccc3ccccc3c2)cc1,inactive
15,O=C(NCc1ccc(C(=O)N2CCCCC2)cc1)c1cc(=O)[nH]c2ccccc12,inactive
16,Cc1ccc(N(Cc2cc3ccccc3[nH]c2=O)C(=O)C(C)(C)C)cc1C,"inconclusive: 31.6 µM [inhibitor, partial curve, poor fit]"
17,O=C(NCc1cccs1)c1ccc2c(c1)sc1nc(-c3ccccc3)cn12,"inconclusive: 25.1 µM [inhibitor, partial curve, poor fit]"
18,O=C(N[C@@H]1CCOC[C@H]1OCc1cscn1)c1ccc(Cl)s1,"inconclusive: 15.8 µM [inhibitor, partial curve]"
19,O=C(Nc1ccccc1)c1cc(-c2ccco2)nc2ccccc12,inactive
20,Cc1ccc(CNC(=O)c2ccc3c(c2)NC(=O)C(CS(=O)(=O)Cc2cccc(C)c2)N3)cc1 (centres undefined),"inconclusive: 15.8 µM [inhibitor, partial curve, poor fit]"
